# Test results from the supplement of paper PMC12423691.
# The list shows a part of the results. Binding of human transcription factors and regulators to the viral nucleoprotein by AlphaScreen, crude cell-free proteins, amounts not normalised, one pass. Fold of the Venus control; higher = more signal. No active / inactive call. Single-pass screen; sequences are the whole Swiss-Prot entries looked up by name.
# B1: NPAS3, Q8IXF0 (protein)
# chain: MAPTKPSFQQDPSRRERITAQHPLPNQSECRKIYRYDGIYCESTYQNLQALRKEKSRDAARSRRGKENFEFYELAKLLPLPAAITSQLDKASIIRLTISYLKMRDFANQGDPPWNLRMEGPPPNTSVKVIGAQRRRSPSALAIEVFEAHLGSHILQSLDGFVFALNQEGKFLYISETVSIYLGLSQVELTGSSVFDYVHPGDHVEMAEQLGMKLPPGRGLLSQGTAEDGASSASSSSQSETPEPVESTSPSLLTTDNTLERSFFIRMKSTLTKRGVHIKSSGYKVIHITGRLRLRVSLSHGRTVPSQIMGLVVVAHALPPPTINEVRIDCHMFVTRVNMDLNIIYCENRISDYMDLTPVDIVGKRCYHFIHAEDVEGIRHSHLDLLNKGQCVTKYYRWMQKNGGYIWIQSSATIAINAKNANEKNIIWVNYLLSNPEYKDTPMDIAQLPHLPEKTSESSETSDSESDSKDTSGITEDNENSKSDEKGNQSENSEDPEPDRKKSGNACDNDMNCNDDGHSSSNPDSRDSDDSFEHSDFENPKAGEDGFGALGAMQIKVERYVESESDLRLQNCESLTSDSAKDSDSAGEAGAQASSKHQKRKKRRKRQKGGSASRRRLSSASSPGGLDAGLVEPPRLLSSPNSASVLKIKTEISEPINFDNDSSIWNYPPNREISRNESPYSMTKPPSSEHFPSPQGGGGGGGGGGGLHVAIPDSVLTPPGADGAAARKTQFGASATAALAPVASDPLSPPLSASPRDKHPGNGGGGGGGGGGAGGGGPSASNSLLYTGDLEALQRLQAGNVVLPLVHRVTGTLAATSTAAQRVYTTGTIRYAPAEVTLAMQSNLLPNAHAVNFVDVNSPGFGLDPKTPMEMLYHHVHRLNMSGPFGGAVSAASLTQMPAGNVFTTAEGLFSTLPFPVYSNGIHAAQTLERKED
# B2: NDP, Q00604 (protein)
# chain: MRKHVLAASFSMLSLLVIMGDTDSKTDSSFIMDSDPRRCMRHHYVDSISHPLYKCSSKMVLLARCEGHCSQASRSEPLVSFSTVLKQPFRSSCHCCRPQTSKLKALRLRCSGGMRLTATYRYILSCHCEECNS
# B3: ZKSCAN3, Q9BRR0 (protein)
# chain: MARELSESTALDAQSTEDQMELLVIKVEEEEAGFPSSPDLGSEGSRERFRGFRYPEAAGPREALSRLRELCRQWLQPEMHSKEQILELLVLEQFLTILPGNLQSWVREQHPESGEEVVVLLEYLERQLDEPAPQVSGVDQGQELLCCKMALLTPAPGSQSSQFQLMKALLKHESVGSQPLQDRVLQVPVLAHGGCCREDKVVASRLTPESQGLLKVEDVALTLTPEWTQQDSSQGNLCRDEKQENHGSLVSLGDEKQTKSRDLPPAEELPEKEHGKISCHLREDIAQIPTCAEAGEQEGRLQRKQKNATGGRRHICHECGKSFAQSSGLSKHRRIHTGEKPYECEECGKAFIGSSALVIHQRVHTGEKPYECEECGKAFSHSSDLIKHQRTHTGEKPYECDDCGKTFSQSCSLLEHHRIHTGEKPYQCSMCGKAFRRSSHLLRHQRIHTGDKNVQEPEQGEAWKSRMESQLENVETPMSYKCNECERSFTQNTGLIEHQKIHTGEKPYQCNACGKGFTRISYLVQHQRSHVGKNILSQ
# B4: KCNIP3, Q9Y2W7 (protein)
# chain: MQPAKEVTKASDGSLLGDLGHTPLSKKEGIKWQRPRLSRQALMRCCLVKWILSSTAPQGSDSSDSELELSTVRHQPEGLDQLQAQTKFTKKELQSLYRGFKNECPTGLVDEDTFKLIYAQFFPQGDATTYAHFLFNAFDADGNGAIHFEDFVVGLSILLRGTVHEKLKWAFNLYDINKDGYITKEEMLAIMKSIYDMMGRHTYPILREDAPAEHVERFFEKMDRNQDGVVTIEEFLEACQKDENIMSSMQLFENVI
# B5: SMAD6, O43541 (protein)
# chain: MFRSKRSGLVRRLWRSRVVPDREEGGSGGGGGGDEDGSLGSRAEPAPRAREGGGCGRSEVRPVAPRRPRDAVGQRGAQGAGRRRRAGGPPRPMSEPGAGAGSSLLDVAEPGGPGWLPESDCETVTCCLFSERDAAGAPRDASDPLAGAALEPAGGGRSREARSRLLLLEQELKTVTYSLLKRLKERSLDTLLEAVESRGGVPGGCVLVPRADLRLGGQPAPPQLLLGRLFRWPDLQHAVELKPLCGCHSFAAAADGPTVCCNPYHFSRLCGPESPPPPYSRLSPRDEYKPLDLSDSTLSYTETEATNSLITAPGEFSDASMSPDATKPSHWCSVAYWEHRTRVGRLYAVYDQAVSIFYDLPQGSGFCLGQLNLEQRSESVRRTRSKIGFGILLSKEPDGVWAYNRGEHPIFVNSPTLDAPGGRALVVRKVPPGYSIKVFDFERSGLQHAPEPDAADGPYDPNSVRISFAKGWGPCYSRQFITSCPCWLEILLNNPR
# B6: REXO4, Q9GZR2 (protein)
# chain: MGKAKVPASKRAPSSPVAKPGPVKTLTRKKNKKKKRFWKSKAREVSKKPASGPGAVVRPPKAPEDFSQNWKALQEWLLKQKSQAPEKPLVISQMGSKKKPKIIQQNKKETSPQVKGEEMPAGKDQEASRGSVPSGSKMDRRAPVPRTKASGTEHNKKGTKERTNGDIVPERGDIEHKKRKAKEAAPAPPTEEDIWFDDVDPADIEAAIGPEAAKIARKQLGQSEGSVSLSLVKEQAFGGLTRALALDCEMVGVGPKGEESMAARVSIVNQYGKCVYDKYVKPTEPVTDYRTAVSGIRPENLKQGEELEVVQKEVAEMLKGRILVGHALHNDLKVLFLDHPKKKIRDTQKYKPFKSQVKSGRPSLRLLSEKILGLQVQQAEHCSIQDAQAAMRLYVMVKKEWESMARDRRPLLTAPDHCSDDA
# B7: PTH, P01270 (protein)
# chain: MIPAKDMAKVMIVMLAICFLTKSDGKSVKKRSVSEIQLMHNLGKHLNSMERVEWLRKKLQDVHNFVALGAPLAPRDAGSQRPRKKEDNVLVESHEKSLGEADKADVNVLTKAKSQ
# Biological target: nucleoprotein N of Crimean-Congo hemorrhagic fever virus
# Test: AlphaScreen luminescence signal relative to Venus negative control (fold); higher = stronger binding to CCHFV N
# Experimental: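 AlphaScreen binding of cell-free made, FLAG-GST-tagged human transcription factors and regulators (crude translation products) to biotinylated N protein; signal as fold of the FLAG-GST-Venus control. One pass.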
row,Binder,AlphaScreen luminescence signal
1,B1,3.3
2,B2,2.42
3,B3,1.63
4,B4,1.53
5,B5,3.21
6,B6,4.47
7,B7,2.42
